Measured values from PubChem BioAssay AID624417 (National Center for Advancing Translational Sciences (NCATS), 2012).
Where “and” joins values, the source holds several entries; their conditions need not be identical. Equal values may be shown once. Hit rate of the full screen: of about 410,000 compounds, about 6,400 (1.6%) were called active. This list was built around the results that the source calls inconclusive (neither active nor inactive); the mix of calls is not that of the screen. Calls come from the whole dose curve; as a rule, active = well fitted inhibition curve with a large enough effect; inconclusive = small, poorly fitted or top-dose-only effect; inactive = no such curve, though single readings can be large or run the other way. Where the call is inconclusive, the potency comes from a doubtful curve fit.

target: Glucagon-like peptide 1 receptor (Homo sapiens) (UniProt P43220); test: qHTS of GLP-1 Receptor Inverse Agonists (Inhibition Mode); conditions: HEK293 GLP-1R CRE-luciferase, luminescence, 24 h, GLP-1R form is constitutively active; series mostly up to 38.3 µM; note: nearly all actives have a fitted effect of over 55% in size
Method in brief: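 Inverse agonism was detected as reduced cAMP-driven luciferase luminescence after 24 h compound treatment. The cells were HEK293 clones expressing constitutively active human GLP-1R with the reporter. Reporter-only and GPR119 cell lines served as counterscreen controls.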
Potency is the fitted concentration of half-maximal effect; tags give direction and shape of the fitted curve.

Chain of UniProt P43220 (P43220 whole entry, looked up): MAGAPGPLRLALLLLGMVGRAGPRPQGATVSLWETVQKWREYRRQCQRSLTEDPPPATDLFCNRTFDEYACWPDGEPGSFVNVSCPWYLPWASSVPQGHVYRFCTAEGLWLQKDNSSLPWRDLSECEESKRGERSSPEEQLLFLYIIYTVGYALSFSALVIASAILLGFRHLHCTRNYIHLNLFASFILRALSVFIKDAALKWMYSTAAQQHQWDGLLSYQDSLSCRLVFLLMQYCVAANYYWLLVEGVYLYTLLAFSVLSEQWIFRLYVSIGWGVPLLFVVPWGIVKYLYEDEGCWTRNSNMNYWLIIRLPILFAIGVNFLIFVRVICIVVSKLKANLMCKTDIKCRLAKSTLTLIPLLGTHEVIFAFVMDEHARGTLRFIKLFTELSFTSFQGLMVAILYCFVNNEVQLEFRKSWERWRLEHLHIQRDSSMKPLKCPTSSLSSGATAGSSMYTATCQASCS

SMILES | Potency
CC(C)(C)OC(=O)CNC(=O)c1[nH]cnc1C(=O)Nc1ccc(Cl)cc1 | inconclusive: 28.2 µM [inhibitor, single point]
Cc1cc(OCC(=O)NCC2(N3CCOCC3)CCCCC2)ccc1Cl | inconclusive: 11.2 µM [inhibitor, single point]
O[C@H]1CN(CC2CCCCC2)[C@@H](c2ccc(Cl)cc2)C[C@@H]1n1cc(C2CC2)nn1 | inconclusive: 6.31 µM [inhibitor, partial curve, poor fit]
O=c1c2ccccc2nc(/C=C/c2cc(Br)ccc2O)n1CCO | inconclusive: 10 µM [inhibitor, partial curve, poor fit]
Cc1ccccc1NC(=O)c1c([N+](=O)[O-])c(C(C)(C)C)nn1C | inconclusive: 20 µM [inhibitor, single point]
COC(=O)N1c2ccccc2C=Cc2ccccc21 | inconclusive: 28.2 µM [inhibitor, single point]
CC(C)c1ccc2oc(=O)cc(CN3CCN(c4ccc(F)cc4)CC3)c2c1 | inconclusive: 28.2 µM [inhibitor, single point]
CCCCC[C@H]1CN(CCc2ccccc2)C(=O)[C@@H]1CC(=O)NCc1ccc(OC)cc1 | inconclusive: 14.1 µM [inhibitor, single point]
CCc1ccc(NC(=S)Nc2ccc3[nH]c(=O)[nH]c3c2)cc1 | inactive
CC(/C=N/NC(=O)c1nnn(-c2nonc2N)c1C(C)C)=C\c1ccco1 | inconclusive: 3.16 µM [inhibitor, full curve, poor fit]
COc1ccc(NC(=O)C2CCCN(C(=O)c3ccc(Cl)cc3)C2)cc1Cl (centres undefined) | inconclusive: 10 µM [inhibitor, partial curve, poor fit]
Cn1c(=O)c2c3c(sc2n2c(SCC(N)=O)nnc12)CC(C(C)(C)C)CC3 (centres undefined) | inconclusive: 28.2 µM [inhibitor, single point]
COc1ccc(C2=CC(=O)C[C@H](c3ccc4c(c3)OCO4)C2)cc1 | inconclusive: 28.2 µM [inhibitor, single point]
CC(=O)Nc1cccc(-c2ccnc3c2CC(C(=O)Nc2cccc(OC(F)(F)F)c2)O3)c1 (centres undefined) | inconclusive: 28.2 µM [inhibitor, single point]
O=[N+]([O-])c1ccc(S(=O)(=O)NN=C2CCCCC2)cc1 | inactive
O=C(Nc1ccccc1)NC1CCN(Cc2c(F)cccc2Cl)CC1 | inconclusive: 15.8 µM [inhibitor, partial curve, poor fit]
O=C(CNC(=O)C(c1ccccc1)c1ccccc1)OCc1ccccc1 | inconclusive: 28.2 µM [inhibitor, single point]
CCCCCc1ccc(C(=O)CCCC)c(=S)[nH]1 | inactive
CC1CCN(C(=O)COC(=O)/C=C/c2ccc([N+](=O)[O-])cc2)CC1 | inconclusive: 0.891 µM [inhibitor, full curve, poor fit]
Cn1nc(C(F)(F)F)c(/C=N/OC(=O)c2ccccc2)c1Sc1ccc(Cl)cc1 | inconclusive: 12.6 µM [inhibitor, partial curve, poor fit]
CCCCCCn1cc(CN2CC(N3CCN(C4CCN(C)CC4)CC3)CS2(=O)=O)nn1 (centres undefined) | inactive
Cc1c(C(=O)N(Cc2ccc(N(C)C)cc2)CC2CCCO2)oc2ccc(Br)cc12 (centres undefined) | inactive

SMILES | Potency
CC1=C(c2ccccc2)C(=S)NC(C)(C)C1 | inactive
Cc1ccccc1NS(=O)(=O)c1ccc(Cl)cc1 | inconclusive: 11.2 µM [inhibitor, single point]
CCC(=O)N1CCC2(CC1)Oc1ccc(Cl)cc1C(=O)C21CC(c2ccc(Cl)cc2)=NO1 (centres undefined) | inconclusive: 14.1 µM [inhibitor, single point]
CCCCN1CC(=O)N2[C@H]3c4cc(Cl)ccc4OC[C@@H]3[C@H](c3ccccc3)[C@]2(C)C1=O | inconclusive: 12.6 µM [inhibitor, single point]
CCOc1ccc2oc(=O)cc(CN3CCN(c4ccc(Cl)cc4)CC3)c2c1 | inactive
CCN1CCN(c2cc(C)c3cc(NC(=O)c4ccccc4F)ccc3n2)CC1 | inactive
CC(C)NC[C@H](O)COc1cccc2ccccc12 | inconclusive: 17.8 µM [inhibitor, single point]
O=C(c1ccccc1)c1ccc(-c2ccc(O)cc2)cc1 | inconclusive: 12.6 µM [inhibitor, single point]
COC(=O)c1sc2cccc(F)c2c1S(=O)(=O)N1CCN(c2ccc(C)cc2C)CC1 | inconclusive: 10 µM [inhibitor, partial curve, poor fit]
CC(=O)Nc1cc(C(=O)N2CCc3ccccc3C2)ccc1Sc1ccc(C)cc1 | inconclusive: 7.94 µM [inhibitor, partial curve, poor fit]
O=C1C(C=NCCCN2CCOCC2)=C(O)c2ccccc21 | inactive
COc1ccc(OCc2cc(C(=O)N3C[C@H]4CC[C@H]3C4)no2)c(Cl)c1 | inconclusive: 14.1 µM [inhibitor, partial curve, poor fit]
O=C(NC(NCc1cccnc1)C(Cl)(Cl)Cl)c1cccc2ccccc12 (centres undefined) | inconclusive: 10 µM [inhibitor, partial curve, poor fit]
Cc1cccc(N2CCN(C(=O)c3ccc4c(c3)c(C)c(C)n4C)CC2C)c1 (centres undefined) | inconclusive: 5.01 µM [inhibitor, partial curve] and inconclusive: 12.6 µM [inhibitor, partial curve, poor fit]
Cc1ccc(C(=O)N2CCN(C3c4cccc5cccc(c45)C3NS(=O)(=O)c3ccccc3)CC2)cc1 (centres undefined) | inconclusive: 7.94 µM [inhibitor, partial curve]
Cc1cccc(NC(=O)c2ccc3c(=O)n4c(nc3c2)CCCCC4)n1 | inconclusive: 10 µM [inhibitor, single point]
CCOc1ccccc1CNC(=O)C1CCCN(S(=O)(=O)c2ccc3c(ccn3C)c2)C1 (centres undefined) | inconclusive: 11.2 µM [inhibitor, partial curve, poor fit]
Cc1ccc(S(=O)(=O)Cn2nnnc2CN2CCCC3(CCCCC3)C2)cc1 | inconclusive: 28.2 µM [inhibitor, single point]
O=S(=O)(c1ccc(NC(=S)N/N=C/c2ccc(N3CCOCC3)cc2)cc1)N1CCOCC1 | inactive
CN1CCCN(Cc2ccccc2C(F)(F)F)CC1 | inactive
Cc1cc(Br)ccc1SCC(=O)N1CCN(S(=O)(=O)c2ccccc2)CC1 | inconclusive: 12.6 µM [inhibitor, partial curve, poor fit]
O=C(Nc1ccnn1C1CCN(Cc2ccc(Cl)cc2)CC1)C1CCCC1 | inconclusive: 12.6 µM [inhibitor, partial curve, poor fit]

SMILES | Potency
COc1cc(CNC(C)C)ccc1OCC(=O)Nc1cccc2ccccc12 | inconclusive: 8.91 µM [inhibitor, partial curve, poor fit]
Cc1ccc(-c2nnc(Nc3cccc(C(F)(F)F)c3)c3ccccc23)cc1S(=O)(=O)N1CCOCC1 | inconclusive: 5.62 µM [inhibitor, full curve, poor fit]
CCc1nc2ccc(C(=O)Nc3cccc(OC)c3)cn2c1N(CC)Cc1cccc(Br)c1 | inconclusive: 14.1 µM [inhibitor, single point]
Cc1ccc(Nc2nc(N3CCOCC3)c3ccccc3n2)cc1 | inconclusive: 5.01 µM [inhibitor, partial curve, poor fit]
O=C(c1ccc(CS(=O)(=O)c2c(Cl)cccc2Cl)o1)N1CCN(c2ccccc2)CC1 | inactive
Cc1ccc(Cn2c(C)c(CNC(C)c3ccccc3)c(C(=O)O)c2C)cc1 (centres undefined) | inactive
Cc1oc(=O)c(NC(=O)c2ccc(Cl)cc2)cc1C(=O)c1ccccc1 | inactive
CC(C)(C)c1ccc(C(=O)N/C(=C\c2cccs2)C(=O)NCc2ccco2)cc1 | inconclusive: 28.2 µM [inhibitor, single point]
O=C(CN1C(=O)NC2(CCCCC2)C1=O)Nc1ccc(Cl)cc1 | inconclusive: 20 µM [inhibitor, single point]
Cc1ccc(S(=O)(=O)N2[C@@H](Cc3ccccc3)CO[C@H]2CC(=O)c2ccc(F)cc2)cc1 | inconclusive: 28.2 µM [inhibitor, single point]
O=C(NC1CCN(Cc2ccccc2)CC1)C1CCN(S(=O)(=O)c2ccc(Cl)cc2)CC1 | inconclusive: 31.6 µM [inhibitor, partial curve, poor fit]
COc1cc(N/N=C/c2ccc(N(C)C)cc2)ncn1 | inconclusive: 14.1 µM [inhibitor, single point]
Cc1ccc([C@H]2C(C(=O)O)=C[C@@H](CC3CCCC3)N2S(=O)(=O)c2ccc(C)cc2)cc1 | inconclusive: 10 µM [inhibitor, single point]
Cc1ccc(C(=O)CC(=O)c2cccc(F)c2)c(O)c1 | inconclusive: 28.2 µM [inhibitor, single point]
COC(=O)CSc1nnc(CNc2ccc(Cl)cc2)n1-c1ccccc1 | inconclusive: 8.91 µM [inhibitor, partial curve, poor fit]
CCOC(=O)c1csc(NC(=O)c2ccc3c(c2)OCCO3)n1 | inconclusive: 17.8 µM [inhibitor, single point]
CCN(CC)c1ccc(NC(=O)C2CCCC2)cc1 | inactive
Cn1ccnc1SCC(=O)c1ccc(OC(F)F)cc1 | inactive
CCCc1cc(=O)oc2cc(C)c(CN3CCCC3)c(O)c12 | inactive
COC(=O)CCC(C)C1CCC2C3CCC4CC(O)CCC4(C)C3CC(O)C12C (centres undefined) | inconclusive: 10 µM [inhibitor, partial curve, poor fit]
